Results on 95 compounds are retold here after PubChem BioAssay AID1508642 (National Center for Advancing Translational Sciences (NCATS), 2021).

Each structure is given as a SMILES string. Among all 43,000 compounds or so, about 200 (0.47%) were called active. Not shown: some 12% with an inconclusive outcome. Calls follow the shape of the dose curve; as a rule, active = well fitted cell-killing curve with a large enough effect; inconclusive = small, poorly fitted or top-dose-only effect, or effect the other way; inactive = flat fitted curve, though single readings scatter. The list shows a part of the results.
% is scaled to controls: 0 for no effect and ±100 for the full control effect.

The nature of the experiment: Cell viability qHTS assay in S16 Pmp22-F2sN cells. Also: nearly all actives have a fitted effect of over 65% in size. The note with it: S16 Pmp22-F2sN Schwann cells viability, CellTiter-Glo, 24 h; series mostly up to 57.5 µM; activity change, negative = cytotoxicity: at the top concentration. The essentials: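 S16 Pmp22-F2sN Schwann cells (500-1,000/well) in phenol-red-free DMEM with 10% FBS received 23 nL compound by pin tool for 24 h at 37 °C. Viability was then read as CellTiter-Glo luminescence after 15 min at room temperature.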
Take `O=C(CCC(=O)N1CCSc2ccccc21)Nc1ccc(Cl)cc1`: the “activity change, negative = cytotoxicity” value was inactive: -3.15%.
The result for `CCC(CC)c1nn2c(=O)cc(COc3ccc(NC(=O)c4cccc(C)c4)cc3)nc2s1` reads inactive: 20.5%.
With `CCOc1cccc(C(=O)N(Cc2ccc(C)o2)C2CCS(=O)(=O)C2)c1` (stereo not given) the figure was inactive: 0.618%; with `COc1ccccc1C(=O)Nc1nc2nc(C)cc(=O)n2[nH]1`, inactive: 2.1%; with `Cc1cc(C)c2sc(NC(=O)c3ccc(S(=O)(=O)N4CCCC4)cc3)nc2c1`, inactive: -1.21%.
With `CCOc1ccc(NC(=O)C2(c3cccs3)CCOCC2)cc1` the figure was inactive: 18.8%; with `CCOC(=O)c1cccc(NC(=O)CCc2nc3cccnc3n2-c2ccccc2)c1`, inactive: 6.57%.
As for `CCOC(=O)c1c(C)[nH]c(CCC(=O)Nc2cc(Cl)ccc2OC)c1C`, the “activity change, negative = cytotoxicity” value is inactive: -6.1%.
For `COc1ccc(OC)c(S(=O)(=O)Nc2ccc3c(c2)n(C)c(=O)n3C)c1`, the “activity change, negative = cytotoxicity” value was inactive: -1.26%.
For `CCOC(=O)c1c(C)oc2ccc(N(C(=O)c3ccncc3)S(=O)(=O)c3ccc(CC)cc3)cc12`, the “activity change, negative = cytotoxicity” value was inactive: -16.5%.
On to `O=C(CN1C(=O)COc2ccc(S(=O)(=O)NC3CCCC3)cc21)Nc1ccc(Cl)cc1F`, for which the “activity change, negative = cytotoxicity” value is inactive: -19.6%.
The result for `O=C(NCCS(=O)(=O)N1CCN(c2ccccc2)CC1)C1CC(=O)N(c2ccc(F)cc2)C1` (stereo not given) reads inactive: -2.14%.
In the case of `COc1ccc(NC(=O)CCSc2nc(-c3ccc(OC)cc3)cc(C(F)(F)F)n2)cc1`, the “activity change, negative = cytotoxicity” value is inactive: 14.7%.
Consider `O=C(COc1ccc(F)cc1)OCc1cc(=O)n2nc(C3CCCCC3)sc2n1`, for which the “activity change, negative = cytotoxicity” value was inactive: -22.7%.
The result for `CC1=C(C(=O)N2CCN(c3cc(C)ccc3C)CC2)C2(CCC(C)CC2)OC1=O` (stereo not given) reads inactive: 5.3%.
`COc1ccc(C(C(=O)NCc2ccccc2)N(C(=O)Cn2nnc3ccccc32)c2cccc(OC)c2)cc1` (stereo not given): the “activity change, negative = cytotoxicity” value is inactive: 1.99%.
As to `CCc1nnc(SCc2c(F)cccc2Cl)c2cc3sccc3n12`, the “activity change, negative = cytotoxicity” value is inactive: 17.7%.
The result for `Cc1ccc(NC(=O)Cn2cc(C(=O)C3CC3)c3ccccc32)c(C)c1` reads inactive: -2.44%.
With `CC(C)CCNC(=O)c1ccc2c(c1)NC(=O)C(CS(=O)(=O)Cc1ccc(F)cc1)N2` (stereo not given) the figure was inactive: 4.44%.
`COc1cc(NC(=O)C2CCN(c3cnc4ccccc4n3)CC2)cc(OC)c1OC`: the “activity change, negative = cytotoxicity” value is inactive: 2.67%.
With `CCCc1cc(=O)n2[nH]c(NC(=O)c3ccc(C(C)(C)C)cc3)nc2n1` the figure was inactive: -3.17%; with `CC(=O)c1cccc(NC(=O)CN2C=NS(=O)(=O)c3ccc(C)cc32)c1`, inactive: 10.9%.
The result for `COc1ccc(C(=O)Nc2nc3nc(C)c(Cc4ccccc4)c(=O)n3[nH]2)cc1OC` reads inactive: 3.8%; that for `Cc1ccc(CNC(=O)COCc2cc(-c3cccs3)on2)cc1`, inactive: 0.36%.
The result for `CC1=C(C(=O)Nc2cccnc2)C(c2cccc(Br)c2)n2nc(SCc3ccccc3)nc2N1` (stereo not given) reads inactive: 13.7%; that for `CCOc1ccc(CNC(=O)C2CCN(S(=O)(=O)N3CCC(C)CC3)CC2)cc1OC`, inactive: 6.07%.
In the case of `Cc1cccc(-c2noc(-c3ccccc3NC(=O)C3CC(=O)N(c4ccccc4C)C3)n2)c1` (stereo not given), the “activity change, negative = cytotoxicity” value is inactive: 13.8%.
On to `CCn1c(=O)c2cc(C(=O)Nc3cc(OC)c(OC)c(OC)c3)sc2c2ccccc21`, for which the “activity change, negative = cytotoxicity” value is inactive: -9.36%.
Take `Cn1ccc2cc(S(=O)(=O)N3CCCC(C(=O)NCc4ccccc4)C3)ccc21` (stereo not given): the “activity change, negative = cytotoxicity” value is inactive: -2.67%.
`CC1=C(C(=O)Nc2ccccc2C)C(c2ccncc2)n2nc(SCc3ccccc3Cl)nc2N1` (stereo not given): the “activity change, negative = cytotoxicity” value is inactive: 8.91%.
The result for `COc1cccc2cc(-c3nc(Nc4cccc(C)c4)sc3C)c(=O)oc12` reads inactive: 8.13%; that for `O=C(c1cccs1)c1cn(CCOc2ccccc2F)c2ccccc12`, inactive: -24.2%.
The result for `CCCCNC(=O)CSc1nc2ccccc2nc1Cc1ccc(C)cc1` reads inactive: -3.01%; that for `COc1cccc(CN2C(=O)c3ccccc3Sc3ccc(C(=O)N(C)Cc4ccccc4)cc32)c1`, inactive: 4.9%.
As to `CCOC(=O)c1ccccc1NC(=O)c1c2c(nc3ccccc13)C(=O)N(C1CCCCC1)C2`, the “activity change, negative = cytotoxicity” value is inactive: 21.4%.
Take `CC(C)c1ccc(S(=O)(=O)c2nnn3c2nc(N2CCN(C)CC2)c2sccc23)cc1`: the “activity change, negative = cytotoxicity” value is inactive: -10.5%.
For the compound `COc1cccc(CNC(=O)c2ccc3nc(-c4ccc(F)cc4)c(-c4ccc(F)cc4)nc3c2)c1`, the “activity change, negative = cytotoxicity” value is inactive: -29.1%.
The result for `COc1cc(C2c3c(-c4ccccc4O)n[nH]c3C(=O)N2CCO)ccc1OCc1ccccc1` (stereo not given) reads inactive: 6.49%.
Consider `CCOC(=O)C1CCCN(CC(=O)N2CCCc3c2c(=O)oc2ccc(OCc4ccccc4)cc32)C1` (stereo not given), for which the “activity change, negative = cytotoxicity” value was inactive: 16.8%.
On to `COc1cc(OC)cc(C(=O)Nc2cc(-c3nc4cc(Cl)ccc4o3)ccc2Cl)c1`, for which the “activity change, negative = cytotoxicity” value was inactive: -4.58%.
With `O=C(CN1C(=O)COc2ccc(S(=O)(=O)N3CCCC3)cc21)N1CCN(c2ccccc2)CC1`, the “activity change, negative = cytotoxicity” value was inactive: 2.22%.
With `COc1ccc2c(Sc3ccccc3)c(C(=O)NCCc3ccc(Cl)cc3)[nH]c2c1` the figure was inactive: 6.72%; with `O=C(CSc1ncc2c(n1)-c1ccc(Cl)cc1N(Cc1ccccc1)S2(=O)=O)Nc1ccc(F)c(F)c1`, inactive: -3.11%.
The result for `CCOc1ccc(C2C(C(N)=O)=C(C)Nc3nc(SCc4ccccc4)nn32)cc1` (stereo not given) reads inactive: 12.9%.
With `O=C(NCc1ccc2c(c1)CCN2C(=O)c1ccccc1)c1cc2ccccc2[nH]1` the figure was inactive: -11.1%; with `CCN1C(=O)c2ccccc2Sc2ccc(NC(=O)c3ccc(Cl)cc3)cc21`, inactive: -9.54%.
Regarding `Cc1oc2ncn(C)c(=O)c2c1C(=O)N1CCN(c2ccccc2F)CC1`, the “activity change, negative = cytotoxicity” value is inactive: 3.84%.
In the case of `Cc1cccc(NS(=O)(=O)c2ccc3c(c2)C(C)(C)C(=O)N3C)c1`, the “activity change, negative = cytotoxicity” value was inactive: -7.78%.
The result for `CCc1nn(Cc2ccc(Cl)cc2)c(=O)c2cc3cc(C)ccc3n12` reads inactive: 11.1%.
For the compound `CCOc1ccc(CN2CCc3nc(Nc4ccc(OC)cc4OC)ncc3C2)cc1`, the “activity change, negative = cytotoxicity” value is inactive: -1.59%.
With `O=C(NCCCN1CCN(c2ccc(F)cc2)CC1)c1ccc2nc(Cc3ccccc3)oc2c1` the figure was inactive: -9.89%.
For `CCSC1=NC2(CCN(C(=O)NC3CCCCC3)CC2)N=C1c1ccc(Cl)cc1`, the “activity change, negative = cytotoxicity” value is inactive: 0.222%.
Consider `COc1ccc2c(c1)c1c(c(=O)n(CCc3ccccc3)c(=O)n1Cc1ccc(F)cc1)n2C`, for which the “activity change, negative = cytotoxicity” value is inactive: -2.65%.
The result for `CCN(CC)CCCNC(=O)c1nn(C)c2c1CS(=O)(=O)c1ccccc1-2` reads inactive: 3.82%; that for `Cc1ccccc1Cn1c(CN2CCC(C(=O)NCCc3ccccc3)CC2)cc2ccccc21`, inactive: -4.81%; that for `CCC(=O)Nc1cccc(C(=O)OCc2cc(=O)n3nc(CC)sc3n2)c1`, inactive: 1.15%.
The result for `COc1ccc2c(c1)c1c(c(=O)n(-c3ccc(F)c(Cl)c3)c(=O)n1Cc1ccccc1C)n2C` reads inactive: 18.3%; that for `Cc1ccc2sc(NC(=O)c3ccc4c(c3)OCCO4)nc2c1C`, inactive: -3.21%; that for `COc1ccc(NC(=O)c2c(-c3ccc(C)cc3)nnc3ccccc23)c(OC)c1`, inactive: 3.45%.
Regarding `CCN(CC)c1nc2ccccc2nc1C(=O)Nc1cccc(C(C)=O)c1`, the “activity change, negative = cytotoxicity” value was inactive: -15.6%.
Turning to `CCOC(=O)c1c(S(=O)(=O)N2CCCC(C(=O)Nc3cccc(C)n3)C2)c(C)n(C)c1C` (stereo not given), the “activity change, negative = cytotoxicity” value was inactive: 6.28%.
The result for `CCOc1ccc(C2CC(=O)Nc3c2c(=O)nc(SCc2ccccc2C)n3C)cc1OC` (stereo not given) reads inactive: 2.15%; that for `CCn1cc(C(=O)OCC(=O)Nc2cccc(C(C)=O)c2)c(=O)c2ccc(C)nc21`, inactive: 6.37%; that for `COc1ccc(Cn2c(=O)c3oc4ccccc4c3n(Cc3ccc(Cl)cc3)c2=O)cc1`, inactive: 5.98%.
With `CCCCCNC(=O)CCCCCn1c(=O)[nH]c2ccsc2c1=O`, the “activity change, negative = cytotoxicity” value was inactive: 13.9%.
The result for `COc1ccc(CNC(=O)C2CCN(c3nc4ccccc4[nH]3)CC2)cc1OC` reads inactive: 1.97%; that for `Cc1ccc(NC(=O)CSc2nnc3scc(-c4ccccc4)n23)cc1`, inactive: 1.18%; that for `O=C(Cn1nnc(-c2ccccc2Cl)n1)Nc1ccc(Br)cc1`, inactive: 19%.
The result for `COC(=O)c1ccc(OCC2c3cc(OC)c(OC)cc3CCN2C(=O)c2ccc(F)cc2)cc1` (stereo not given) reads inactive: -0.795%; that for `CCOC(=O)c1c(C)[nH]c(C)c1S(=O)(=O)N1CCCC(C(=O)N2CCN(c3ccccc3)CC2)C1` (stereo not given), inactive: -0.734%; that for `CCOCCc1nn2c(=O)cc(COC(=O)C3CCCCC3)nc2s1`, inactive: 1.19%.
Take `Cc1cccn2c(=O)c3cc(C(=O)NC(C)c4ccccc4)c(=N)n(CCCO)c3nc12` (stereo not given): the “activity change, negative = cytotoxicity” value is inactive: -14.8%.
On to `O=c1oc2c(CN3CCN(CCO)CC3)c(O)ccc2cc1-c1ccccc1`, for which the “activity change, negative = cytotoxicity” value was inactive: -2.52%.
Regarding `COc1ccc(Cn2ccc3nc(C)c(C(=O)NCc4ccc(F)cc4)cc3c2=O)cc1`, the “activity change, negative = cytotoxicity” value was inactive: 1.33%.
For `Cc1ccc2c(=O)cc(C(=O)Nc3sc4c(c3C(=O)NCc3cccnc3)CCCC4)oc2c1C`, the “activity change, negative = cytotoxicity” value is inactive: -2.49%.
With `Fc1ccc(-c2noc3ncnc(NCCCN4CCN(c5ccccc5)CC4)c23)cc1` the figure was inactive: -27.3%; with `CCc1cc(C(=O)Nc2cnn(Cc3ccccc3C)c2)no1`, inactive: -0.218%.
The result for `COc1ccc(S(=O)(=O)NCC(c2ccco2)N2CCOCC2)cc1OC` (stereo not given) reads inactive: 14.9%.
Regarding `COc1cccc(NC(=O)CC2NCCNC2=O)c1` (stereo not given), the “activity change, negative = cytotoxicity” value was inactive: 16.5%.
Regarding `COc1ccc(C(=O)NCC(c2ccc(N(C)C)cc2)N2CCc3ccccc32)c(OC)c1` (stereo not given), the “activity change, negative = cytotoxicity” value is inactive: 6.53%.
As for `COc1ccc(Cn2c(=O)c3oc4ccccc4c3n(CC(=O)Nc3ccc(F)cc3F)c2=O)cc1`, the “activity change, negative = cytotoxicity” value is inactive: 0.782%.
Consider `O=C(NCCc1ccccc1Cl)c1ccc2c(c1)nc1n2CCCCC1`, for which the “activity change, negative = cytotoxicity” value is inactive: -2.01%.
In the case of `CCN(CC)c1ccc(-c2nc(-c3ccccc3C)no2)cc1[N+](=O)[O-]`, the “activity change, negative = cytotoxicity” value is inactive: 23.3%.
With `Cc1ccc(Nc2nc(C)nc(N)c2S(=O)(=O)c2ccccc2)cc1` the figure was inactive: -5.55%; with `CC1=C(C(=O)Nc2ccccc2)C(c2cccn2C)n2ncnc2N1` (stereo not given), inactive: 11.9%; with `Cc1ccc(C)c(Cn2c(C3CC(=O)N(c4ccccc4C)C3)nc3ccccc32)c1` (stereo not given), inactive: 3.22%.
The result for `Cc1ccc(CNC(=O)CSc2n[nH]c(-c3ccc(F)cc3)n2)cc1` reads inactive: -0.0153%; that for `O=S(=O)(c1ccc2nc(N3CCN(c4cccc(Cl)c4)CC3)ccc2c1)N1CCCCC1`, inactive: 8.72%.
In the case of `Cc1ccc(Cl)cc1N1CCN(Cc2nnc(-c3ccc4c(c3)OCO4)o2)CC1`, the “activity change, negative = cytotoxicity” value was inactive: -11.5%.
Regarding `Cc1cc(NC(=O)C2CCN(S(=O)(=O)c3ccc(Br)s3)CC2)ccc1Br`, the “activity change, negative = cytotoxicity” value was inactive: 7.7%.
Turning to `Cc1ccc(NC(=O)CN2C(=O)CCSc3ccc(S(=O)(=O)N4CCCC4)cc32)cc1C`, the “activity change, negative = cytotoxicity” value was inactive: 1.88%.
Turning to `Cc1ccc(C)c(OC(=O)CSc2nnc(CNC(=O)c3ccccc3)o2)c1`, the “activity change, negative = cytotoxicity” value was inactive: 7.2%.
With `CC1=C(c2ccc(C)cc2)S(=O)(=O)NC1=NCCCN1CCN(c2ccc(F)cc2)CC1` the figure was inactive: -5.11%; with `CC(=O)N1CCc2c(sc3nc(SCC(C)C)n(-c4ccc(F)c(Cl)c4)c(=O)c23)C1`, inactive: 3.8%.
The result for `CCCSc1ncc(Cl)c(C(=O)Nc2c(C(=O)Nc3ccc(C)cc3)oc3ccccc23)n1` reads inactive: -2.47%.
